{"sequences": {"note": "Protein sequences, listed by entry. Tags and fused reporters are not part of them. Residues count along the entry.", "UniProt P15531": "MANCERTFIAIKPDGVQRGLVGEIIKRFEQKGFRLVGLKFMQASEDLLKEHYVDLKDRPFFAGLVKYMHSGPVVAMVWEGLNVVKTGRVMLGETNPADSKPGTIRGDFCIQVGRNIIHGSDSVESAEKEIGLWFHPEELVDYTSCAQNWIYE", "UniProt P00441": "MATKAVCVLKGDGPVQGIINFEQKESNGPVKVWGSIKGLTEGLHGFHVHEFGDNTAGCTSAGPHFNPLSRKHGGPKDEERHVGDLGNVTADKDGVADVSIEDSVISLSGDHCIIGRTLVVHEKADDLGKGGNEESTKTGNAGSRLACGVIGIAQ", "UniProt Q13885": "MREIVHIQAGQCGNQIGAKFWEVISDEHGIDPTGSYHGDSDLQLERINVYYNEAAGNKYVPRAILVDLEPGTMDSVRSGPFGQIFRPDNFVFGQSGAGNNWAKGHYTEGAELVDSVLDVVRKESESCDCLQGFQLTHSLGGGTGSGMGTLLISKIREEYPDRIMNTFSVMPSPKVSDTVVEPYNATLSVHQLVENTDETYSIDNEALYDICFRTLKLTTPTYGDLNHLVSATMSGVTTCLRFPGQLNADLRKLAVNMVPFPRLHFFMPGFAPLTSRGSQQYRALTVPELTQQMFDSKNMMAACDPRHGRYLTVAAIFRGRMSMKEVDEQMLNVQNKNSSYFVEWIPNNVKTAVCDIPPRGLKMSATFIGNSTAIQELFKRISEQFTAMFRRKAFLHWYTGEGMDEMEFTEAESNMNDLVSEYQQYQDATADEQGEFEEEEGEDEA", "UniProt P07437": "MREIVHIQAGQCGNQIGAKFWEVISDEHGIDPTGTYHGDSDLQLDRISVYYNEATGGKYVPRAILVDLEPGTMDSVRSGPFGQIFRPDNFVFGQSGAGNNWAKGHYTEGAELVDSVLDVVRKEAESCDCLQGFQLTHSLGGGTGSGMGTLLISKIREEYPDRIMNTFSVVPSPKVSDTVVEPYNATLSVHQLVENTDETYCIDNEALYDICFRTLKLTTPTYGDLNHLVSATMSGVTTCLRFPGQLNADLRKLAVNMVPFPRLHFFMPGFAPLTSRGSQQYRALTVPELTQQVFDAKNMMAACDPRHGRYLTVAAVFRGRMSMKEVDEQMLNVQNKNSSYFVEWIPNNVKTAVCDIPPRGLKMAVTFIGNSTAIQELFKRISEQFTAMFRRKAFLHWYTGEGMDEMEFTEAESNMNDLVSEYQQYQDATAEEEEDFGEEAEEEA", "UniProt P08238": "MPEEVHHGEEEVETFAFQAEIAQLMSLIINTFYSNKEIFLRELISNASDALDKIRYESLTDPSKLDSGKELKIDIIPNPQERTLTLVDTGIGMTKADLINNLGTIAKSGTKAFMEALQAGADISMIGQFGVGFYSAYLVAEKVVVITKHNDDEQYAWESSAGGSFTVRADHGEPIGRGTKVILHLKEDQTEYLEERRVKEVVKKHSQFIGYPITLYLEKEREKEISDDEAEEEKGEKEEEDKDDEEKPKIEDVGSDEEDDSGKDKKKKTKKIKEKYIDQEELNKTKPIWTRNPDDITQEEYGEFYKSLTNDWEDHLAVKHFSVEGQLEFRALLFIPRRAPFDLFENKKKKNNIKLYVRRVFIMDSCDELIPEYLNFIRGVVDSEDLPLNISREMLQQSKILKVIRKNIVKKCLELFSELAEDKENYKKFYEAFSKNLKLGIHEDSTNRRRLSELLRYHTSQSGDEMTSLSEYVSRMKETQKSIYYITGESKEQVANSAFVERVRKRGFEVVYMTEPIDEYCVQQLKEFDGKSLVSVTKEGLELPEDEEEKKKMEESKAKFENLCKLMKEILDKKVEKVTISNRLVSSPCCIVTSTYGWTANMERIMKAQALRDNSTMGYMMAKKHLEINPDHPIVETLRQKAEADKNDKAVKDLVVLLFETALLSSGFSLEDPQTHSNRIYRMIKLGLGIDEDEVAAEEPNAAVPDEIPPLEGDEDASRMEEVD", "UniProt P11021, residues 19-654": "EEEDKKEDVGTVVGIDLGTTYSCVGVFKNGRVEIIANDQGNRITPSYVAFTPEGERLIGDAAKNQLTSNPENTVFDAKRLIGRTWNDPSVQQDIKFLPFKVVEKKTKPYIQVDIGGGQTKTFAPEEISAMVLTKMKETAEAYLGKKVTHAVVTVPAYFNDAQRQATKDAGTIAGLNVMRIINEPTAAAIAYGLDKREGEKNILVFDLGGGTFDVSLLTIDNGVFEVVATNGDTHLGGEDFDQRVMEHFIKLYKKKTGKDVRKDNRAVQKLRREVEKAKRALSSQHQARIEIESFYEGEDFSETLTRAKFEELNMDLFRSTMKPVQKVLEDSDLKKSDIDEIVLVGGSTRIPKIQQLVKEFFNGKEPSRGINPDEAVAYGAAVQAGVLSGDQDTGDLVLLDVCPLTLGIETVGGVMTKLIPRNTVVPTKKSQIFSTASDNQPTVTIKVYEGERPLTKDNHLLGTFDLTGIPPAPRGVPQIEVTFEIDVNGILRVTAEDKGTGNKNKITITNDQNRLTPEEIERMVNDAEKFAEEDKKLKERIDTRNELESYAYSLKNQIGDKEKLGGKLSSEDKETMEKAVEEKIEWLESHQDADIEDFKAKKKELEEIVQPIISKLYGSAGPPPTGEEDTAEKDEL", "UniProt P11142": "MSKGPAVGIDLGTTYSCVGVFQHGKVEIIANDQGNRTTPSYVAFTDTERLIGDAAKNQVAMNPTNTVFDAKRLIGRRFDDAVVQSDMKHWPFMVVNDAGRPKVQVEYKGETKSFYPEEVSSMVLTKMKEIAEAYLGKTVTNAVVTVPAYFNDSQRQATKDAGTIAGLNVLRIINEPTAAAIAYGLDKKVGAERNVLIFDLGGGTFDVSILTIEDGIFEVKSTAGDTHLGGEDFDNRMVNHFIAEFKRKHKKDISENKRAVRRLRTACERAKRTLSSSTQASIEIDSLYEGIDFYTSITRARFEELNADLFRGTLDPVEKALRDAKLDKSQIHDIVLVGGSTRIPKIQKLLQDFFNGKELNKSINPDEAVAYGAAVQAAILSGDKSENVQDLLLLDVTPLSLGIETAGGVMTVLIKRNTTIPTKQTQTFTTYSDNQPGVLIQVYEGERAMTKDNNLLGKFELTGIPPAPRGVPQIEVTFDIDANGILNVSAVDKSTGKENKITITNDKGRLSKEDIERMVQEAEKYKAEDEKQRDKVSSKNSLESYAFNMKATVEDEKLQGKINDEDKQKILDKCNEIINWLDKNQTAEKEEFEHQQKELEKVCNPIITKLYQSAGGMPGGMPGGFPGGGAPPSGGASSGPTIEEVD", "UniProt P38646, residues 47-679": "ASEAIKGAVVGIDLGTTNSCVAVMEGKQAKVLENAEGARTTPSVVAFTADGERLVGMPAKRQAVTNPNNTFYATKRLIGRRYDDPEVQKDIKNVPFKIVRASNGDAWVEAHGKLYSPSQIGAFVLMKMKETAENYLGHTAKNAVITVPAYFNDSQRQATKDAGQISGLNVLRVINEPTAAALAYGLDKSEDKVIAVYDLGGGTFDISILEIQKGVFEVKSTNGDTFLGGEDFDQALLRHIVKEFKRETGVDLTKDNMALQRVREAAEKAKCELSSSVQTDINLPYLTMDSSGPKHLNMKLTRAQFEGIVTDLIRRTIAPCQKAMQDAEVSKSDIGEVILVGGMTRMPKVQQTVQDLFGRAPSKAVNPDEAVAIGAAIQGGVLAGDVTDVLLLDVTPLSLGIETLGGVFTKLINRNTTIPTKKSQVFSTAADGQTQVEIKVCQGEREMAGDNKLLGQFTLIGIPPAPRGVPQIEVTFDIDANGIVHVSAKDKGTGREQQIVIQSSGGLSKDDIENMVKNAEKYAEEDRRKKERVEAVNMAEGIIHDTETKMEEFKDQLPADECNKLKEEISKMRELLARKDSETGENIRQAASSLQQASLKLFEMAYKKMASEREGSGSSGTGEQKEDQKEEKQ"}, "source": "paper PMC5823669", "about": "“Multi-chaperone function modulation and association with cytoskeletal proteins are key features of the function of AIP in the pituitary gland” (Oncotarget, 2018)", "molecules": {"B1": {"name": "HA-tagged NEFL (neurofilament light polypeptide) (protein, UniProt P07196 1-543)", "chain": "MSSFSYEPYYSTSYKRRYVETPRVHISSVRSGYSTARSAYSSYSAPVSSSLSVRRSYSSSSGSLMPSLENLDLSQVAAISNDLKSIRTQEKAQLQDLNDRFASFIERVHELEQQNKVLEAELLVLRQKHSEPSRFRALYEQEIRDLRLAAEDATNEKQALQGEREGLEETLRNLQARYEEEVLSREDAEGRLMEARKGADEAALARAELEKRIDSLMDEISFLKKVHEEEIAELQAQIQYAQISVEMDVTKPDLSAALKDIRAQYEKLAAKNMQNAEEWFKSRFTVLTESAAKNTDAVRAAKDEVSESRRLLKAKTLEIEACRGMNEALEKQLQELEDKQNADISAMQDTINKLENELRTTKSEMARYLKEYQDLLNVKMALDIEIAAYRKLLEGEETRLSFTSVGSITSGYSQSSQVFGRSAYGGLQTSSYLMSTRSFPSYYTSHVQEEQIEVEETIEAAKAEEAKDEPPSEGEAEEEEKDKEEAEEEEAAEEEEAAKEESEEAKEEEEGGEGEEGEETKEAEEEEKKVEGAGEEQAAKKKD"}, "B2": {"name": "HA-tagged CBR1 (carbonyl reductase [NADPH] 1) (protein, UniProt P16152 1-277)", "chain": "MSSGIHVALVTGGNKGIGLAIVRDLCRLFSGDVVLTARDVTRGQAAVQQLQAEGLSPRFHQLDIDDLQSIRALRDFLRKEYGGLDVLVNNAGIAFKVADPTPFHIQAEVTMKTNFFGTRDVCTELLPLIKPQGRVVNVSSIMSVRALKSCSPELQQKFRSETITEEELVGLMNKFVEDTKKGVHQKEGWPSSAYGVTKIGVTVLSRIHARKLSEQRKGDKILLNACCPGWVRTDMAGPKATKSPEEGAETPVYLALLPPDAEGPHGQFVSEKRVEQW"}}, "note": "No constants are given. Whether binding was seen depends on the method and setting. In cells and extracts the contact can be indirect. Some binding calls cover weakened binding; strength is not graded here. Where a sequence is shown, tags or fusion partners need not be part of it."}
{"molecular_target": "T1, N-terminally Myc-tagged WT AIP (human) (UniProt O00170)", "T1 sequence": "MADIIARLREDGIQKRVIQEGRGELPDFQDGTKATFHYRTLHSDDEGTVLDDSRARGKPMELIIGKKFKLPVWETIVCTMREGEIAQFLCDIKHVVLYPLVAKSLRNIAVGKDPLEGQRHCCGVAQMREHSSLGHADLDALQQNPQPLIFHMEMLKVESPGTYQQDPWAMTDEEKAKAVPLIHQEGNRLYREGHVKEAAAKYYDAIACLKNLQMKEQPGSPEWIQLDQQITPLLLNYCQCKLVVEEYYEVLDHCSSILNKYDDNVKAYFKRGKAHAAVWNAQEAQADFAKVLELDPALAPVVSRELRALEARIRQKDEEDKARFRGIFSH", "assay": "co-IP; Myc-AIP and one HA-tagged partner co-transfected in HEK293; lysis in 150 mM NaCl, 10 mM Tris-Cl pH 7.5, 10% glycerol, 1% IGEPAL CA-630; IP with anti-Myc, anti-HA (anti-ACTB for ACTB) or mouse IgG control; Western blot with anti-Myc and anti-HA"}
{"molecule": "HA-tagged NME1 (nucleoside diphosphate kinase A) (from UniProt P15531 1-152)", "binding": "binds"}
{"molecule": "HA-tagged SOD1 (superoxide dismutase [Cu-Zn]) (from UniProt P00441 1-154)", "binding": "binds weakly"}
{"molecule": "HA-tagged TUBB2A (tubulin beta-2A chain) (from UniProt Q13885 1-445)", "binding": "binds"}
{"molecule": "HA-tagged TUBB (tubulin beta chain) (from UniProt P07437 1-444)", "binding": "binds"}
{"molecule": "N-terminally HA-tagged HSP90AA1 (heat shock protein 90-alpha) (from UniProt P07900 1-732)", "binding": "binds"}
{"molecule": "N-terminally HA-tagged HSP90AB1 (heat shock protein 90-beta) (from UniProt P08238 1-724)", "binding": "binds"}
{"molecule": "N-terminally HA-tagged HSPA5 (78 kDa glucose-regulated protein) (from UniProt P11021 19-654)", "binding": "binds"}
{"molecule": "N-terminally HA-tagged HSPA8 (heat shock cognate 71 kDa protein) (from UniProt P11142 1-646)", "binding": "binds"}
{"molecule": "N-terminally HA-tagged HSPA9 (stress-70 protein, mitochondrial) (from UniProt P38646 47-679)", "binding": "binds"}
{"molecular_target": "T1, N-terminally Myc-tagged WT AIP (human)", "assay": "co-IP; Myc-AIP and one HA-tagged partner co-transfected in HEK293; lysis in 150 mM NaCl, 10 mM Tris-Cl pH 7.5, 10% glycerol, 1% IGEPAL CA-630; IP with anti-Myc, anti-HA (anti-ACTB for ACTB) or mouse IgG control; Western blot with anti-Myc and anti-HA", "remark": "another data set of the same source"}
{"molecule": "B1", "binding": "no binding"}
{"molecule": "B2", "binding": "no binding"}
